The values that follow come from IntAct's records for PubMed 17717527.

B1: Exocyst complex component EXO70 (Saccharomyces cerevisiae), P19658 (parent)
chain: MPAEIDIDEADVLVLSQELQKTSKLTFEINKSLKKIAATSNQSSQLFTPILARNNVLTTLQRNIESTLNSVASVKDLANEASKYEIILQKGINQVGLKQYTQVVHKLDDMLEDIQSGQANREENSEFHGILTHLEQLIKRSEAQLRVYFISILNSIKPFDPQINITKKMPFPYYEDQQLGALSWILDYFHGNSEGSIIQDILVGERSKLILKCMAFLEPFAKEISTAKNAPYEKGSSGMNSYTEALLGFIANEKSLVDDLYSQYTESKPHVLSQILSPLISAYAKLFGANLKIVRSNLENFGFFSFELVESINDVKKSLRGKELQNYNLLQDCTQEVRQVTQSLFRDAIDRIIKKANSISTIPSNNGVTEATVDTMSRLRKFSEYKNGCLGAMDNITRENWLPSNYKEKEYTLQNEALNWEDHNVLLSCFISDCIDTLAVNLERKAQIALMPNQEPDVANPNSSKNKHKQRIGFFILMNLTLVEQIVEKSELNLMLAGEGHSRLERLKKRYISYMVSDWRDLTANLMDSVFIDSSGKKSKDKEQIKEKFRKFNEGFEDLVSKTKQYKLSDPSLKVTLKSEIISLVMPMYERFYSRYKDSFKNPRKHIKYTPDELTTVLNQLVR
partner: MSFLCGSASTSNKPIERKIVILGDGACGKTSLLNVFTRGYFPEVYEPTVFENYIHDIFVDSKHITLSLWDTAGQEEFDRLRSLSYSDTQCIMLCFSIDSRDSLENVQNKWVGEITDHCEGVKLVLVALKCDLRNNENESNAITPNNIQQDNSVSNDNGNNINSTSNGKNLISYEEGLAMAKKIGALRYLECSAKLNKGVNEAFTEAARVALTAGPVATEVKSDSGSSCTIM

In the first assay the parent is B1. To be noted: with rho3_yeast RHO3, Q00245.
E443A;R444A;K445A: the “effect of a mutation on the interaction” value is listed as “disrupting interaction”.

Variants of B1 are the subject of the next assay. To be noted: with rho3_yeast RHO3, Q00245. This is another data set of the same source.
For E488A;K489A;E491A, the “effect of a mutation on the interaction” value is recorded as “disrupting interaction”.
